Assay results reported in ChEMBL document CHEMBL5606460, “ASAP - DENV-2 NS2B-NS3 protease fluorescence single point” (2024).
About 110 (5.5%) of roughly 2,000 compounds showed an effect of 50% or more. The list shows a part of the results.

Biological target: Genome polyprotein (dengue virus type 2) (UniProt P29990)
[1] = Thailand/16681/1984, Concentration 25.0 uM, Number of replicates 1.0

CC(C)CNC(=O)c1cc(Cl)ccc1NS(=O)(=O)c1ccc(Oc2ccccc2Cl)cc1
inhibition (Thailand/16681/1984, Concentration 49.5 uM, Number of replicates 2.0, Standard deviation 0.23411798845789034 %): 89.6%
inhibition (Thailand/16681/1984, Concentration 99.01 uM, Number of replicates 2.0, Standard deviation 0.14645254355523077 %): 88.7%
inhibition (Thailand/16681/1984, Concentration 198.0 uM, Number of replicates 2.0, Standard deviation 0.2542297902177128 %): 84.4%

c1ccn2c(CNCC3CCOCC3)nnc2c1
inhibition (Thailand/16681/1984, Concentration 49.5 uM, Number of replicates 2.0, Standard deviation 2.7665035419211352 %): -3.17%
inhibition (Thailand/16681/1984, Concentration 99.01 uM, Number of replicates 2.0, Standard deviation 2.4078733948373303 %): -3.24%
inhibition (Thailand/16681/1984, Concentration 198.0 uM, Number of replicates 2.0, Standard deviation 4.372243026006982 %): -2.65%

Cc1nn(CC(=O)Nc2ccc(F)cc2)cc1C1CCNCC1
inhibition (Thailand/16681/1984, Concentration 49.5 uM, Number of replicates 2.0, Standard deviation 1.8924243865107444 %): -1.42%
inhibition (Thailand/16681/1984, Concentration 99.01 uM, Number of replicates 2.0, Standard deviation 0.7306080535770403 %): -0.829%
inhibition (Thailand/16681/1984, Concentration 198.0 uM, Number of replicates 2.0, Standard deviation 0.9421356473344553 %): -0.039%

Cn1ccnc1[C@@H](O)C1CCN(C(=O)C2CCN(c3ccc(C=O)cc3)CC2)CC1
inhibition [1]: 14%

OB1CCc2ccc(N3CC[C@@H](O)C3)cc2O1
inhibition (Thailand/16681/1984, Concentration 49.5 uM, Number of replicates 2.0, Standard deviation 0.6770308743828706 %): 2.45%
inhibition (Thailand/16681/1984, Concentration 99.01 uM, Number of replicates 2.0, Standard deviation 0.2576934182283381 %): 3.1%
inhibition (Thailand/16681/1984, Concentration 198.0 uM, Number of replicates 2.0, Standard deviation 4.849321137785832 %): -0.748%

CC[C@H](C#N)NC(=O)c1cc(Cl)ccc1NS(=O)(=O)c1ccc(Oc2ccccc2Cl)cc1
inhibition (Thailand/16681/1984, Concentration 49.5 uM, Number of replicates 2.0, Standard deviation 0.706613157296788 %): 44.6%
inhibition (Thailand/16681/1984, Concentration 99.01 uM, Number of replicates 2.0, Standard deviation 0.473003628419333 %): 22.1%
inhibition (Thailand/16681/1984, Concentration 198.0 uM, Number of replicates 2.0, Standard deviation 1.2548162043536224 %): 2.91%

O=Cc1ccc(N2CCC(C(=O)NC3CCC(C(F)(F)F)CC3)CC2)cc1 (centres undefined)
inhibition [1]: 17.2%

Cc1cnccc1NC(=O)CNCC(C)C
inhibition (Thailand/16681/1984, Concentration 49.5 uM, Number of replicates 2.0, Standard deviation 1.1660707043110226 %): -2.62%
inhibition (Thailand/16681/1984, Concentration 99.01 uM, Number of replicates 2.0, Standard deviation 0.6960754336447001 %): -3.33%
inhibition (Thailand/16681/1984, Concentration 198.0 uM, Number of replicates 2.0, Standard deviation 0.02675195344901679 %): -1.71%

Cc1ccc(C)c(N2CCN(C(=O)C3CCN(c4ccc(C=O)cc4)CC3)CC2)c1
inhibition [1]: 8.15%

Cc1cc(NC(=O)c2[nH]c([C@H]3CCCNC3)nc2C)n[nH]1
inhibition (Thailand/16681/1984, Concentration 49.5 uM, Number of replicates 2.0, Standard deviation 0.1819338679741269 %): -0.694%
inhibition (Thailand/16681/1984, Concentration 99.01 uM, Number of replicates 2.0, Standard deviation 0.4335851561467917 %): -1.03%
inhibition (Thailand/16681/1984, Concentration 198.0 uM, Number of replicates 2.0, Standard deviation 0.7148425402027826 %): -1.18%

Cc1cc(CO)c2cccc(Cc3ccccc3C(=O)NCc3ncc[nH]3)c2n1
inhibition (Thailand/16681/1984, Concentration 49.95 uM, Number of replicates 2.0, Standard deviation 0.344234553800121 %): -9.9%

Cc1cc(Br)c(NC(=O)C2CCN(c3ccc(C=O)cc3)CC2)c([N+](=O)[O-])c1
inhibition [1]: 13.2%

COc1ccccc1OCCn1cc(C2CCNCC2)c(C)n1
inhibition (Thailand/16681/1984, Concentration 49.5 uM, Number of replicates 2.0, Standard deviation 0.4008605306484476 %): -1.35%
inhibition (Thailand/16681/1984, Concentration 99.01 uM, Number of replicates 2.0, Standard deviation 0.8515456477601485 %): 0.612%
inhibition (Thailand/16681/1984, Concentration 198.0 uM, Number of replicates 2.0, Standard deviation 0.3007587308619815 %): 2.21%

CN(C)C(=O)CN1CCN(C(=O)C2CCN(c3ccc(C=O)cc3)CC2)CC1
inhibition [1]: 12.6%

COc1ccccc1N1CCN(C(=O)Cc2cccc3c(CO)cc(C)nc23)CC1
inhibition (Thailand/16681/1984, Concentration 49.95 uM, Number of replicates 2.0, Standard deviation 0.38376020550842554 %): -4.56%
inhibition (Thailand/16681/1984, Concentration 99.9 uM, Number of replicates 2.0, Standard deviation 0.6884685438861432 %): -0.371%

CC(C)Cn1cccc(C(=O)Nc2ccncc2C(F)(F)F)c1=O
inhibition (Thailand/16681/1984, Concentration 49.5 uM, Number of replicates 2.0, Standard deviation 5.23322293563183 %): -3.89%
inhibition (Thailand/16681/1984, Concentration 99.01 uM, Number of replicates 2.0, Standard deviation 0.16283923825626637 %): -4.73%
inhibition (Thailand/16681/1984, Concentration 198.0 uM, Number of replicates 2.0, Standard deviation 1.971758036933884 %): -6.94%

Cc1cc(CO)c2cccc(Cc3cccc(C(=O)NCc4sccc4C)c3)c2n1
inhibition (Thailand/16681/1984, Concentration 49.95 uM, Number of replicates 2.0, Standard deviation 0.7466793423372446 %): 1.25%
inhibition (Thailand/16681/1984, Concentration 99.9 uM, Number of replicates 2.0, Standard deviation 0.16169689007422708 %): 23.8%

Cc1cc(CO)c2cccc(Cc3ccccc3NC(=O)[C@@H]3C[C@@H](O)CN3)c2n1
inhibition (Thailand/16681/1984, Concentration 49.95 uM, Number of replicates 2.0, Standard deviation 0.8204460631533153 %): 8.07%
inhibition (Thailand/16681/1984, Concentration 99.9 uM, Number of replicates 2.0, Standard deviation 0.7809804285572902 %): 21.9%

O=Cc1ccc(N2CCC(C(=O)N3CCN(c4cccc(O)c4)CC3)CC2)cc1
inhibition [1]: 13.4%

O=Cc1ccc(N2CCC(C(=O)Nc3ccc(Oc4ccc(Cl)cc4)cc3)CC2)cc1
inhibition [1]: 3.01%

O=Cc1ccc(N2CCC(C(=O)N3CCN(C4CCCC4)CC3)CC2)cc1
inhibition [1]: 15.4%

Cc1cc(CO)c2cccc(Cc3cccc(NC(=O)[C@H](N)CCO)c3)c2n1
inhibition (Thailand/16681/1984, Concentration 49.95 uM, Number of replicates 2.0, Standard deviation 1.3764108738319158 %): 12.9%
inhibition (Thailand/16681/1984, Concentration 99.9 uM, Number of replicates 2.0, Standard deviation 1.1119296213572014 %): 13.6%
